Experimental data published in PMC12820563.
The list shows a part of the results. The list includes weakly bound sequences.

Target: T1, MBP-FoxP3dN (UniProt Q99JB6)
T1 sequence: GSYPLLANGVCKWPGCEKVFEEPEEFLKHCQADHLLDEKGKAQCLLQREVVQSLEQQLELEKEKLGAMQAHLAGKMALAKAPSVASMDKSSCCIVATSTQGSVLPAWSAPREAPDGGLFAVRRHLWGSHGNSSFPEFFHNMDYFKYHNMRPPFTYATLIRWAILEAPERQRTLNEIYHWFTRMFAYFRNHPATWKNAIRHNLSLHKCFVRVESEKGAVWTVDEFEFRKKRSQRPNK
Test: PD-seq (MBP pull-down with sequencing)
Details: 20 mM Tris-HCl pH 7.5, 100 mM NaCl, 1.5 mM MgCl2, 0.4 uM protein, 0.1 uM dsDNA library, 30 min, room temperature, amylose pull-down; high values mean tight binding; double strand, one strand shown

| Sequence | binding signal (RPM ratio (pull-down/input)) |
| --- | --- |
| GATGATTGTTCTCCCAGCTGATGAATTGTATCATTCGAGTAAACAAATTTTCCTAATCTTTCTGTTCAAGCGCCATCTAC | 2.63 |
| GATGATTGTTCTCCCAGCTGATGAATTTTCACCATCGAGTAAACAAATTTTCCTAATCTTTCTGTTCAAGCGCCATCTAC | 0.331 |
| GATGATTGTTCTCCCAGCTGATGAATTAGCATGGTCGAGTAAACAAATTTTCCTAATCTTTCTGTTCAAGCGCCATCTAC | 1.13 |
| GATGATTGTTCTCCCAGCTGATGAATTTGATTCCTCGAGTAAACAAATTTTCCTAATCTTTCTGTTCAAGCGCCATCTAC | 2.35 |
| GATGATTGTTCTCCCAGCTGATGAATTGTATGTGTCGAGTAAACAAATTTTCCTAATCTTTCTGTTCAAGCGCCATCTAC | 3.75 |
| GATGATTGTTCTCCCAGCTGATGAATTCTTATTATCGAGTAAACAAATTTTCCTAATCTTTCTGTTCAAGCGCCATCTAC | 0.726 |
| GATGATTGTTCTCCCAGCTGATGAATTTGGCGGATCGAGTAAACAAATTTTCCTAATCTTTCTGTTCAAGCGCCATCTAC | 0.335 |
| GATGATTGTTCTCCCAGCTGATGAATTCAAGAGGTCGAGTAAACAAATTTTCCTAATCTTTCTGTTCAAGCGCCATCTAC | 0.218 |
| GATGATTGTTCTCCCAGCTGATGAATTGCCAATTTCGAGTAAACAAATTTTCCTAATCTTTCTGTTCAAGCGCCATCTAC | 0.55 |
| GATGATTGTTCTCCCAGCTGATGAATTGACAACATCGAGTAAACAAATTTTCCTAATCTTTCTGTTCAAGCGCCATCTAC | 2.61 |
| GATGATTGTTCTCCCAGCTGATGAATTATGGAGTTCGAGTAAACAAATTTTCCTAATCTTTCTGTTCAAGCGCCATCTAC | 0.486 |
| GATGATTGTTCTCCCAGCTGATGAATTCAAGTTTTCGAGTAAACAAATTTTCCTAATCTTTCTGTTCAAGCGCCATCTAC | 0.454 |
| GATGATTGTTCTCCCAGCTGATGAATTATTCTTCTCGAGTAAACAAATTTTCCTAATCTTTCTGTTCAAGCGCCATCTAC | 0.297 |
| GATGATTGTTCTCCCAGCTGATGAATTGATGGGCTCGAGTAAACAAATTTTCCTAATCTTTCTGTTCAAGCGCCATCTAC | 0.401 |
| GATGATTGTTCTCCCAGCTGATGAATTCCCTCGGTCGAGTAAACAAATTTTCCTAATCTTTCTGTTCAAGCGCCATCTAC | 0.192 |
| GATGATTGTTCTCCCAGCTGATGAATTCACACGCTCGAGTAAACAAATTTTCCTAATCTTTCTGTTCAAGCGCCATCTAC | 0.451 |
| GATGATTGTTCTCCCAGCTGATGAATTCGGTCGATCGAGTAAACAAATTTTCCTAATCTTTCTGTTCAAGCGCCATCTAC | 0.29 |
| GATGATTGTTCTCCCAGCTGATGAATTTCATAGTTCGAGTAAACAAATTTTCCTAATCTTTCTGTTCAAGCGCCATCTAC | 0.583 |
| GATGATTGTTCTCCCAGCTGATGAATTGAGACCCTCGAGTAAACAAATTTTCCTAATCTTTCTGTTCAAGCGCCATCTAC | 0.404 |
| GATGATTGTTCTCCCAGCTGATGAATTTTGCGGTTCGAGTAAACAAATTTTCCTAATCTTTCTGTTCAAGCGCCATCTAC | 1.31 |

| Sequence | binding signal (RPM ratio (pull-down/input)) |
| --- | --- |
| GATGATTGTTCTCCCAGCTGATGAATTCACGCACTCGAGTAAACAAATTTTCCTAATCTTTCTGTTCAAGCGCCATCTAC | 1.26 |
| GATGATTGTTCTCCCAGCTGATGAATTAAGAGGGTCGAGTAAACAAATTTTCCTAATCTTTCTGTTCAAGCGCCATCTAC | 0.295 |
| GATGATTGTTCTCCCAGCTGATGAATTTGCGTTCTCGAGTAAACAAATTTTCCTAATCTTTCTGTTCAAGCGCCATCTAC | 3.13 |
| GATGATTGTTCTCCCAGCTGATGAATTTCGTGACTCGAGTAAACAAATTTTCCTAATCTTTCTGTTCAAGCGCCATCTAC | 0.93 |
| GATGATTGTTCTCCCAGCTGATGAATTTCATGGTTCGAGTAAACAAATTTTCCTAATCTTTCTGTTCAAGCGCCATCTAC | 0.71 |
| GATGATTGTTCTCCCAGCTGATGAATTTACGGACTCGAGTAAACAAATTTTCCTAATCTTTCTGTTCAAGCGCCATCTAC | 0.345 |
| GATGATTGTTCTCCCAGCTGATGAATTTGCTTGCTCGAGTAAACAAATTTTCCTAATCTTTCTGTTCAAGCGCCATCTAC | 6.22 |
| GATGATTGTTCTCCCAGCTGATGAATTAAAGCACTCGAGTAAACAAATTTTCCTAATCTTTCTGTTCAAGCGCCATCTAC | 0.606 |
| GATGATTGTTCTCCCAGCTGATGAATTAATTTACTCGAGTAAACAAATTTTCCTAATCTTTCTGTTCAAGCGCCATCTAC | 3.63 |
| GATGATTGTTCTCCCAGCTGATGAATTCGGGCAGTCGAGTAAACAAATTTTCCTAATCTTTCTGTTCAAGCGCCATCTAC | 0.317 |
| GATGATTGTTCTCCCAGCTGATGAATTCCGAGGGTCGAGTAAACAAATTTTCCTAATCTTTCTGTTCAAGCGCCATCTAC | 0.291 |
| GATGATTGTTCTCCCAGCTGATGAATTTGGTCATTCGAGTAAACAAATTTTCCTAATCTTTCTGTTCAAGCGCCATCTAC | 0.824 |
| GATGATTGTTCTCCCAGCTGATGAATTGAAGCCCTCGAGTAAACAAATTTTCCTAATCTTTCTGTTCAAGCGCCATCTAC | 0.308 |
| GATGATTGTTCTCCCAGCTGATGAATTATCAGTCTCGAGTAAACAAATTTTCCTAATCTTTCTGTTCAAGCGCCATCTAC | 0.422 |
| GATGATTGTTCTCCCAGCTGATGAATTCGGGAATTCGAGTAAACAAATTTTCCTAATCTTTCTGTTCAAGCGCCATCTAC | 0.718 |
| GATGATTGTTCTCCCAGCTGATGAATTCGCTGCATCGAGTAAACAAATTTTCCTAATCTTTCTGTTCAAGCGCCATCTAC | 1.02 |
| GATGATTGTTCTCCCAGCTGATGAATTTCCGTAATCGAGTAAACAAATTTTCCTAATCTTTCTGTTCAAGCGCCATCTAC | 0.596 |
| GATGATTGTTCTCCCAGCTGATGAATTGATATAATCGAGTAAACAAATTTTCCTAATCTTTCTGTTCAAGCGCCATCTAC | 0.673 |
| GATGATTGTTCTCCCAGCTGATGAATTTCACGGGTCGAGTAAACAAATTTTCCTAATCTTTCTGTTCAAGCGCCATCTAC | 0.201 |
| GATGATTGTTCTCCCAGCTGATGAATTAAACATTTCGAGTAAACAAATTTTCCTAATCTTTCTGTTCAAGCGCCATCTAC | 0.817 |
